ChEMBL document CHEMBL4888484, “Replenishing the malaria drug discovery pipeline: Screening and hit evaluation of the MMV Hit Generation Library 1 (HGL1) against asexual blood stage Plasmodium falciparum ,using a nano luciferase reporter read-out” (2022)
The whole screen tested about 150,000 compounds, of which about 540 (0.36%) showed an effect of 50% or more. The list shows a part of the results.

These compounds were tested on Plasmodium falciparum (assay: Primary screen in NF54 nanoGlo assay, in single point, at 2uM, 72h; a lower Z score goes with more inhibition). Conditions: timepoint 72 hour.
Type: functional, Erythrocyte

Compound | % Inhibition [%] | Z score
C[C@H](O)C#Cc1ncc(C(F)(F)F)cc1Cl | -5 | 0.87
COC(=O)[C@@H](CC(C)C)NC(=O)NCc1ccccc1 | 33 | -3.76
Cc1cncnc1N(C)C[C@H]1CCc2nc(C(F)(F)F)cn2C1 | -8 | 1.67
CCCn1ncc(C(=O)N2CCC[C@H](c3nc(-c4cccnc4)no3)C2)c1C | -10 | 1.32
CCc1nnc(CN2C[C@@H]3CC[C@H]2CN(C(=O)c2ccccn2)C3)o1 | -5 | 0.77
CC(C)c1nsc(N2CCN([C@H]3CCS(=O)(=O)C3)CC2)n1 | -2 | 0.28
CC(C)n1[nH]c(=O)c2c1NC(=O)C[C@@H]2c1ccc(C#N)cc1 | 31 | -3.47
CN(C(=O)c1ccncc1F)c1ccc(N2CCOCC2)nc1 | -1 | 0.22
CCN(CC(=O)NC(C)(C#N)C1CC1)C(C)c1ccc(F)cc1 (stereo unspecified) | -13 | 2.42
CC(C)c1ccc(NC(=O)CCS(=O)(=O)c2ccc3c(c2)CC(=O)N3C)cc1 | -7 | 0.89
COc1cc(OC)c(NC(C)=O)cc1Br | -9 | 1.7
COc1ccc2c(c1)[C@@H](N(Cc1ccccc1)Cc1nccn1Cc1ccccc1)CCO2 | 0 | 0.01
Clc1ccc(CN(Cc2cnoc2C2CC2)C2CC2)cc1 | -11 | 1.4
c1ccc(-n2nccc2-c2nc3c(cnn3CC3CC3)[nH]2)cc1 | -18 | 2.16
Cc1[nH]c(-c2ccc(F)cc2)cc1C(=O)N1CC(C)CC(C)C1 (stereo unspecified) | -7 | 1.38
O=C(Cn1ccnc1)Nc1ccc2[nH]c(-c3cccs3)nc2c1 | -5 | 0.65
CCc1ccc(Nc2ncnc3c(-c4ccc(C)cc4)noc23)cc1 | -1 | 0.15
Cc1ccoc1C(=O)N[C@H](c1cncc(Br)c1)C1CC1 | 5 | -0.47
COc1ccc(Cl)cc1NC(=O)Cn1c(N2CCN(c3ccccc3)CC2)nc(C)cc1=O | -11 | 1.75
O=C(Cc1cccnc1)NC1Cc2ccccc2C1 | -2 | 0.33
C1=CC2CC1CC2CN1CCN(c2ncccn2)CC1 (stereo unspecified) | -10 | 1.4

Compound | % Inhibition [%] | Z score
O=C(O)C1CC1C(=O)N(CC1CCC1)CC(F)(F)F (stereo unspecified) | -11 | 1.25
CCCc1cnc(C)nc1-c1ccc(C(=O)N[C@@H](C)c2nc(CC)no2)cc1 | -8 | 1.21
C[C@H](OC(=O)c1c(Cl)ccc(Cl)c1Cl)C(N)=O | -10 | 1.42
CN(C)CC1(O)CCC2(CCN(S(=O)(=O)c3cccc4nsnc34)CC2)CC1 | -19 | 2.73
COCCNc1nc(-c2cc(F)ccc2F)c2c(N)n(-c3cccc(C)c3)nc2n1 | 5 | -0.72
COc1ccc(OC)c(C2CC2C(=O)N2CCc3cnccc32)c1 (stereo unspecified) | -1 | 0.14
CC(C)N(C)Cc1ncnn1CC1CCCCC1 | -8 | 0.77
O=S(=O)(c1cccs1)N1CCOC2(CCOCC2)C1 | -8 | 1.46
COC(=O)c1ccc(S(=O)(=O)N2CC(N(C)C)C2)cc1OC | 6 | -0.51
Cc1cccc(N2CC[C@@H](C(=O)N3CCN(Cc4ccccc4)CC3)C2=O)c1 | -16 | 1.67
CC(=O)N1CCC([C@H]2CCN(Cc3ccc(C)cc3C)C2)CC1 | -9 | 1.06
Cc1cc(Cl)ccc1C=Cc1nc(C)c(CCC(=O)O)c(=O)[nH]1 | 6 | -0.78
Cc1nn(-c2ccc(F)cc2)c2nc(N3CCCN(C(=O)c4ccccc4F)CC3)sc12 | -16 | 1.84
CN1CC[C@H](C(=O)N2CCN(c3c(F)cccc3F)CC2)CC1=O | -6 | 0.82
C[C@H](NC(=O)Cn1ccc(=O)[nH]c1=O)c1nc(C(C)(C)C)cs1 | -17 | 2.61
Cc1nc(C)c(COCc2[nH]nnc2-c2ccccc2)s1 | -9 | 1.45
CCCS(=O)(=O)N1CCN(c2cnnc(N3CCCC3)c2)CC1 | -9 | 1.62
Cc1cc(-c2cc(-c3cc(F)cc(F)c3)nc(CC(N)=O)n2)c(C)o1 | -8 | 1.29
CC(C)c1csc(CN2CCN(C3CCN(C(C)C)CC3)[C@@H](CCO)C2)n1 | -5 | 0.9
C[C@@H]1Oc2ccc(NC(=O)COc3ccccc3)cc2CN(Cc2ccc(F)cc2)C1=O | -1 | 0.16
Cc1cc([C@@H](C#N)c2ccc(Cl)cc2)c(Cl)cc1NC(=O)Cc1ccc(Cl)cc1 | -3 | 0.66

Compound | % Inhibition [%] | Z score
COc1cc(CN2CCC(F)(c3nc(-c4cnccn4)no3)CC2)ccc1O | -4 | 0.73
COc1ccc2ncc(=O)n(CCOc3ccccc3)c2c1 | 32 | -4.38
N#Cc1ccc(S(=O)(=O)N2CC(c3nc(CCOCc4ccccc4)no3)C2)cc1 | -18 | 2.34
CC1CC(n2nnc3c2CN(C(=O)c2ccc4c(n2)CCCN4)CC3)C1 (stereo unspecified) | 3 | -0.65
COc1ccc(Cc2ncc3c(n2)CN(C(=O)[C@H](N)CC(C)C)C3)cc1 | -13 | 1.83
C[C@@H]1CC(=O)N[C@H](C(=O)NCCn2ccnc2)C1 | -13 | 1.58
Cc1cccc(Cl)c1CC(=O)N1CCC[C@H](O)C1 | -4 | 0.66
Cc1oc(-c2[nH]ncc2C(=O)N2CCCC2)cc1S(=O)(=O)NCc1cccnc1 | 2 | -0.25
Cc1ccccc1-c1nc2n(n1)C1(CCCCC1)[C@@H]1CCCC[C@@H]1N2C(=O)c1ccco1 | -10 | 0.89
CCN(C(=O)c1cccc(N2CCNC2=O)c1C)c1nc(C)cs1 | -5 | 0.53
CC(C)(C(=O)N1CCC(C(=O)N2CCCC2)CC1)c1ccc2c(c1)OCO2 | -4 | 0.6
CCc1nccn1CCC(=O)N1CCC[C@H](c2nnc[nH]2)C1 | -5 | 0.81
O=C(Nc1nc(C2CC3CCC2C3)cs1)N1C2CCC1CC(O)C2 (stereo unspecified) | -3 | 0.47
C[C@@]1(C2CCNCC2)NC(=O)N(CCCc2ccccc2)C1=O | -8 | 1.62
CC(C)CCc1nc(N2CCCN(C(=O)c3cccc4ccccc34)CC2)c2cnn(-c3cccc(Cl)c3)c2n1 | 2 | -0.28
CCCC[C@@H]1C[C@@H]1C(=O)N1CCC(n2cc(C3CCCC3)nn2)CC1 | -18 | 2.29
O=C(NCCc1ccccc1F)N1CCN([C@@H](c2ccccc2)c2ccc(Cl)cc2)CC1 | -1 | 0.06
Cn1c(C2CC2)nn(C[C@H]2CCCO2)c1=O | -10 | 1.5
CCO[C@H]1CN(C(=O)COc2ccc(Cl)cc2C)C[C@@H]1O | -9 | 1.56
Cn1cnc2c(NCC(=O)N3CCN(c4ccccc4)CC3)ncnc21 | -1 | 0.15
COc1cc(-c2nc(CN3[C@@H]4CC[C@H]3CNC(=O)C4)c(C)o2)cc2c1OCO2 | -12 | 1.33

Compound | % Inhibition [%] | Z score
CNS(=O)(=O)[C@H]1CCN(Cc2ccc(Oc3ccccc3)o2)C1 | 35 | -3.95
O=S1(=O)CCCC[C@@H]1CNCc1cnnn1Cc1ccccc1 | -13 | 2.5
CS(=O)(=O)N1CCc2nc(NC(=O)c3cncc(Br)c3)sc2C1 | -3 | 0.45
Cc1ccc(N2CC(C(=O)NC3CCN4CCCCC34)CC2=O)cc1 (stereo unspecified) | 2 | -0.32
CC[C@H](NS(=O)(=O)C1CC1)c1cc(C)ccn1 | 4 | -0.77
CCc1ccc([C@@H]2CCCCN2C(=O)c2ccc3cc[nH]c3n2)o1 | -1 | 0.18
COc1ccc2c(c1)c(N1CCCC1=O)c(C(=O)NC1CCCCC1)n2C | 5 | -0.74
CC1CCCN(C(=O)CN2CCCC2c2nnc3ccccn23)C1 (stereo unspecified) | -2 | 0.42
CCS(=O)(=O)N1CCC[C@H]1c1nnc(C(=O)Nc2ccc3c(c2)OCO3)s1 | -5 | 0.92
CCCc1cncc(OCC(=O)Nc2ccc(OC)c(OC)c2)c1 | 9 | -1.51
COc1ccc(CNC(=O)C[C@@H]2O[C@H](CNCc3ccccn3)[C@@H](O)[C@H]2O)cc1 | -6 | 0.8
O=C(CC1CCCCC1)N[C@H]1CCCN(c2cc(-c3ccccc3)n[nH]2)C1 | -12 | 1.24
Cn1nncc1S(=O)(=O)NC[C@@]1(C)CCCN1Cc1ccccc1 | -3 | 0.5
CCCCS(=O)(=O)N1CC[C@H](CNc2nccn(CC(C)C)c2=O)C1 | -12 | 1.82
O=C(CCc1nc(-c2ccc(S(=O)(=O)N3CCOCC3)cc2)no1)NC1CCCCC1 | -7 | 0.84
C[C@H](O)c1ccc(CCNC(=O)C2CCC2)s1 | 0 | 0.09
O=C(CCc1ncc(-c2ccccc2)o1)N1CCc2ccccc2C1 | -1 | 0.19
COc1ccc(N2CCN(C(=O)c3ccn4c(-c5ccccc5)nnc4c3)CC2)cc1 | -3 | 0.29
Cc1cc(NC(=O)C2CN(C(=O)c3cc(C)on3)C2)no1 | -9 | 1.48
O=C1OCCN1CC(=O)N(CC1CC1)C1CCCCC1 | -11 | 1.73
